Results taken from article PMC12136788.
The other results are listed elsewhere or left out.

T1: UNK ZnF1-3 (human, UniProt Q9C0B0 31-174)
T1 sequence: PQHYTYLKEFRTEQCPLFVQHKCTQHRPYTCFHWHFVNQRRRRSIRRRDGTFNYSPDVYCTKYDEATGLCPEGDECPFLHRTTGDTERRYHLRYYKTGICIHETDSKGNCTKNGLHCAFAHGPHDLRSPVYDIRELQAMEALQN

B1: chr1:60041781:60041782:+_ENSMUSG00000041040_ENSMUST00000036540|mus_hu|mus_mus_mus_hu_False|18_38 (ssRNA)
RNA: GGGAGUUCUACAGUCCGACGAUCAAGUUUACAAUAGUAAAGUAAAUGCAGUAGUGGCAAAUUUUCUUUUAUUUUCCUUCACAAAAGAAAAUCUUUAGAUCUCAGUUCUAGUCUUGGCAGAGAAAGCAGCUAUAAAUUCUGACUCAACAGAGGAUUGAGCAUCA
B2: chr4:71691144:71691145:-_ENSG00000132463_ENST00000545193|hu_hu|FALSE|FALSE (ssRNA)
RNA: GGGAGUUCUACAGUCCGACGAUCGGCCUUCCCACUGGAGCUGUAUUCCAUGGUGAUUCUAACAGGCUUGAGUGGAGCAAAAAAGUUUAUAAUGUCUUGGGCAUUGGCUUGGAAAGGUAAUCCUCUCAUGUGGACAAAAUGCAGCAACAGAGGAUUGAGCAUCA
B3: 44155223_44156325_877_CDS_ENSMUSG00000035696_ENSMUST00000045793|mouse|control|control (ssRNA)
RNA: GGGAGUUCUACAGUCCGACGAUCAGGAUGAUGGGGAGAAAGAUGAGGAGGAUGUAUAAGAAACGGAUCGCUAGAAAUGAGGGGCGGGAACGCAGCAUAUGGUACUGGUAAGUGCUGAACUGAACAUGCCUGAAGCAUUGGAGGCAACAGAGGAUUGAGCAUCA
B4: 115118305_115119361_312_CDS_ENSG00000116752_ENST00000369541|human|control|control (ssRNA)
RNA: GGGAGUUCUACAGUCCGACGAUCGUUUACACAUUCUUGCCAUGCAGUAAUGUCAUUUUUUUGACCAGAGGAGGGGGCUGGAAGCUCAUAUCGUUUCAUACUGAGCAAUUCAAUUGGUUGUCGAGCAGCCAGUCUUUCAAAUUCCAACAGAGGAUUGAGCAUCA
B5: chr11:109260588:109260589:+_ENSMUSG00000020611_ENSMUST00000020930|mus_mus|FALSE|FALSE (ssRNA)
RNA: GGGAGUUCUACAGUCCGACGAUCCUUCACCAGAGGACCCUUUGGGUGUGGAGUACCCACAAUGCACUGCGAUAGGAAAACAAACAAACAAACAAAAAAACCCAACAUGCUCCUCUUCAGGACAUCCUGUCUGGCUUGGCUGAACAACAGAGGAUUGAGCAUCA
B6: 8038687_8046011_421_CDS_ENSG00000066044_ENST00000407627|human|control|control (ssRNA)
RNA: GGGAGUUCUACAGUCCGACGAUCCAUGGUCCGCGGGAGCCCGCUGAUGUACAAGUUGGCGUCUUUGAUCACCUCUGAGCUCGGGCGAGCAUACGACACCUUAAUGGUUUUUGACUGGAGCCUCAAGCCGUUCAGCGUGUUGAUCAACAGAGGAUUGAGCAUCA
B7: 42835553_42839370_121_3pUTR_ENSG00000132823_ENST00000255174|human|control|control (ssRNA)
RNA: GGGAGUUCUACAGUCCGACGAUCGUCUGUAGACUCUCCUCCUCUCCAUCCUUGGCUUCGGAUUUCAUUGUGCAAGUUUUUACACUACUUAUCGAUGUUCCUGUUUACACUCCUCGCAGCUGGGACGCUCCGGUGAUGCGGGGCCAACAGAGGAUUGAGCAUCA
B8: chr16:94690093:94690094:+_ENSMUSG00000040785_ENSMUST00000117648|mus_hu|mus_mus_mus_hu_True|38_48 (ssRNA)
RNA: GGGAGUUCUACAGUCCGACGAUCGGGCUGGGAUGACGGACACACAGCCUCGAUUCCAGGGGGAAAAAGUCUUAGUCGAUACUAAUUUAAAAAGUAUUUUAUAAUUGGAAAAUCAGAUUACAUCUAUAAAAGAUGAAAAGCAAACAACAGAGGAUUGAGCAUCA
B9: chr11:44378942:44378943:+_ENSMUSG00000019189_ENSMUST00000019333|mus_hu|motif|central (ssRNA)
RNA: GGGAGUUCUACAGUCCGACGAUCUUUAAAUUUAUUAAGACAUUCAGCUAUGUCUGUCAGUCUACAUCCAAAUUUGCGGCGGAAAAUAAAAUAAAGUCACAUCCCACAUUAGGAAUACCGAGGUCUGAAAAACACUUUUUGAGCCAACAGAGGAUUGAGCAUCA
B10: chrX:101971874:101971875:+_ENSG00000158301_ENST00000332262|hu_hu|motif|central (ssRNA)
RNA: GGGAGUUCUACAGUCCGACGAUCCAUAGUGAGGUGUCUAAGCAUCCUUAUUCCAGUCAGCUGCUCAAGGGAAUCCACACGGUGUGCAAGGGUUUCCUCACACACUUGACAUAUGAAUGUCUCAAUCAUGUUUAGAUUUGGAUACAACAGAGGAUUGAGCAUCA
B11: chr12:21788615:21788616:-_ENSG00000111716_ENST00000350669|hu_mus|FALSE|FALSE (ssRNA)
RNA: GGGAGUUCUACAGUCCGACGAUCCUGAUUGAUGACGCUGGUCAGCCCCCGAGCAUUGAGGAUGCACGGGAGACUGAGGAAGACUUCAUUCUCAAUGCCGUACAUUCCCUUCACCAUGGUAGACACGGGGUGAAUCCGGGAGAGCAACAGAGGAUUGAGCAUCA
B12: chr1:39494447:39494448:+_ENSG00000168653_ENST00000372967|hu_mus|hu_hu_hu_mus_False|18_78 (ssRNA)
RNA: GGGAGUUCUACAGUCCGACGAUCGCACCGAGCGGCGUUCUUAUAGGGCUGUUCUGCACUCUGGAUUAUAAAGUGCCGGUCCAGGCUGAUGCCCAGCUUUUUCUGUAUGUCAAGGAAAGGCAUGGCCCUGCAGUGCCCUUGUCACAACAGAGGAUUGAGCAUCA
B13: chr7:44244176:44244177:+_ENSG00000106636_ENST00000223369|hu_mus|hu_hu_hu_mus_False|18_98 (ssRNA)
RNA: GGGAGUUCUACAGUCCGACGAUCACUGUCGCUCCGGACGUAGACGUGGCAAAGAUACUCUUGUUCUUUGACAGAAGCUCUGCUGCCUUUCCCCGAGCGUUCCACAAUCAGUUGACUCGUGAAGGUCAUGAAUUCCUGCACACUCAACAGAGGAUUGAGCAUCA
B14: chr2:216981417:216981418:+_ENSG00000079246_ENST00000392132|hu_hu|hu_hu_hu_mus_True|18_108 (ssRNA)
RNA: GGGAGUUCUACAGUCCGACGAUCCUGAUACUGAUCCUUGCCAGCAAGGGCAUUAUCAGUGCCAUCUGUGCCAUAGAGGACUAACGCAAUCUCAUCUUUGCUCUCCGAAAAUACCUGUCGCUGUACAAACAUAGUCAUCACUUUCAACAGAGGAUUGAGCAUCA
B15: chr5:32599118:32599119:+_ENSG00000113387_ENST00000502897|hu_mus|motif|central (ssRNA)
RNA: GGGAGUUCUACAGUCCGACGAUCAGAAAUACCUUUUCUUCCUGGUUUCAUUUCACCUUCUGAAUCCAUCCAAUAUUCUCGGAUAUCAAUUAGAAUUUUUCCUUUGAAGUCCCGAACACUGACAUAUCUCAUCUUUCCAAUCUGCAACAGAGGAUUGAGCAUCA
B16: chr7:56126341:56126342:+_ENSG00000146731_ENST00000540286|hu_mus|hu_hu_hu_mus_True|78_108 (ssRNA)
RNA: GGGAGUUCUACAGUCCGACGAUCCAUAUUUCUCCUUUUGGCUCUGCGCAGAGCUACUAUGCCUUCUUUCGCAAGGGCAUCUAAGGAAAAGGGGUCAAUCCCCUUUUGAUUAAUAACGACAAAUCCUUUAUCUGAGUCACCACACAACAGAGGAUUGAGCAUCA
B17: 96689512_96691227_115_3pUTR_ENSMUSG00000038615_ENSMUST00000081775|mouse|control|control (ssRNA)
RNA: GGGAGUUCUACAGUCCGACGAUCUUACCAGGGGGGUUUCCAGAGAACCCCGCUGCUGAGGUCACAGUCUGUCGCUGCCGCCACAGCAGGCCCUCAGCCCAAGUCCCGGCCUCGCCACCGCCGCCGUCGCCGCCACCUCCGGCCCAACAGAGGAUUGAGCAUCA
B18: chr16:42174308:42174309:+_ENSMUSG00000061080_ENSMUST00000099761|mus_hu|motif|central (ssRNA)
RNA: GGGAGUUCUACAGUCCGACGAUCUAUUCUGUGUGACGCAUUUUUGUGUGUUUUUUAAAUUAUUUUUAAAUUUUUAUUCGGUUAACAUUUGCUGAGAAGGCAGAGCAGAGAUGCUGCCAGCAGCCACAGUGGUACGGCCAGACUCAACAGAGGAUUGAGCAUCA
B19: chr11:77336104:77336105:-_ENSG00000074201_ENST00000525064|hu_mus|hu_hu_hu_mus_False|28_58 (ssRNA)
RNA: GGGAGUUCUACAGUCCGACGAUCCUCACACAUUGCUGUGAACAUCGCCUCCAAUGCUGACUUAUCACUGGGCACAAAUCUAAAUUCAGAAAUGGGUUCAACAUCAUCAUCACUGUCCUCAUCUUCAUCAGAGAGAGGUUCUUUCAACAGAGGAUUGAGCAUCA
B20: 140542959_140548134_232_3pUTR_ENSMUSG00000036622_ENSMUST00000037055|mouse|control|control (ssRNA)
RNA: GGGAGUUCUACAGUCCGACGAUCGAAGCUGAGGAGCUGAGGGGAUCGAUUGACGUCCCUGUCGUCAGGGUCCCAUAGCUGGGGGGCGUGCUGCCCAUGAGCAGGCUGCUGUCUGCGCUCAUUUCGGCUCCUCGCGCUCAUCGCCAACAGAGGAUUGAGCAUCA
B21: 13400300_13412261_3633_CDS_ENSMUSG00000020576_ENSMUST00000042953|mouse|control|control (ssRNA)
RNA: GGGAGUUCUACAGUCCGACGAUCUUCAAGAUACCCCAGGGCUUGAAUGAGGUCUAAUUCCUCCUGAAUGGCAGCCGGCCUGUCCGUUAUAAGCUGUAAGCAGCACCUGGCCAAAUCCAUGCAGCUGUCAGUGAGGUUGGUGGACAACAGAGGAUUGAGCAUCA
B22: chr15:96529919:96529920:-_ENSMUSG00000022462_ENSMUST00000023099|mus_mus|FALSE|FALSE (ssRNA)
RNA: GGGAGUUCUACAGUCCGACGAUCCCACCUCACGGCAGCGUCUCCCGUGGGCUGUCUCGGUCACACACCAGAAUUGUAAAACGAGGGAAAAAAUGUAACAGUGACGGAGUCCUUUUCUUUUAUUUUUUUUAAUAAAAAAUUUUUCAACAGAGGAUUGAGCAUCA

Target: T1, UNK ZnF1-3
Assay: nsRBNS (natural sequence RNA bind-n-seq); RBNS binding buffer (assumed for nsRBNS): 25 mM Tris pH 7.5, 150 mM KCl, 3 mM MgCl2, 0.01% Triton X-100, 500 ug/ml BSA, 20 U/ml SUPERase-In, 4 C; UNK is unkempt and MSI1 is Musashi-1; names of the RNAs are library labels; protein concentration not given here; high values mean tight binding

| Binder | binding signal [enrichment R] |
| --- | --- |
| B1 | 0.705 |
| B2 | 1.45 |
| B3 | 1.62 |
| B4 | 0.494 |
| B5 | 1.68 |
| B6 | 0.494 |
| B7 | 0.558 |
| B8 | 1.32 |
| B9 | 1.15 |
| B10 | 0.755 |
| B11 | 0.617 |
| B12 | 0.793 |
| B13 | 0.614 |
| B14 | 0.852 |
| B15 | 0.591 |
| B16 | 0.62 |
| B17 | 0.741 |
| B18 | 1.96 |
| B19 | 1.11 |
| B20 | 0.437 |
| B21 | 0.996 |
| B22 | 1.44 |
